Measured values as given in US20230303648A1 (OSE IMMUNOTHERAPEUTICS, published 2023).
Each block holds one binder with its values, some of them ahead of it.

Legend:
[1] = molecular target: T1, CD127 (Sinobiological, 10975-H03H-50) (UniProt P16871 21-239); assay: Biacore: CD127 immobilised on sensor chip, fusion at escalating doses
T1 construct: bought; immobilised on the CM5 chip in the Biacore assays; also called CD127 receptor
T1 sequence (looked up): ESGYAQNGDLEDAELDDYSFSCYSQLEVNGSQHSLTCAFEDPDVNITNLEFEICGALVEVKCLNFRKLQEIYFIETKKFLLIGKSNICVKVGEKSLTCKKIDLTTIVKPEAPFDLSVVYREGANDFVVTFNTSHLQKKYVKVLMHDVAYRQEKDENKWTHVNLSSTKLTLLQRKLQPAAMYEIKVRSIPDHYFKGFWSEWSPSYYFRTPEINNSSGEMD

[2] = molecular target: T2, recombinant human PD-1 (rPD1; Sino Biologicals, reference 10377-H08H) (human, UniProt Q15116 in part); assay: ELISA: PD-1 immobilised, anti-human Fc peroxidase detection
T2 construct: bought; also called hPD1; PD-1 receptor

[3] = molecular target: T3, biotinylated recombinant human PD-1 (human, UniProt Q15116 in part, limits assumed, biotinylated (site not stated)); assay: competition ELISA: PD-L1 immobilised (competitor), biotinylated PD-1 at 0.6 µg/mL premixed with the molecule
T3 construct: used in solution in the PD-1/PD-L1 antagonist ELISA; also called PD-1 receptor

[4] = molecular target: T4, CD127 recombinant protein (Histidine tagged, Sino ref 10975-H08H) (UniProt P16871 21-239); assay: sandwich ELISA, PD-1 immobilised, molecule at varied concentration + fixed quantity of His-tagged CD127, anti-His-biotin + streptavidin-peroxidase, 450 nm, blank deducted
T4 construct: bought; used in the CD127 sandwich ELISA; also called CD127 receptor; IL-7Ralpha; not shown: histidine tag
T4 sequence (looked up): T1 sequence (looked up)

[5] = molecular target: T4, CD127 recombinant protein (Histidine …); assay: sandwich ELISA: PD-1 immobilised, fusion preincubated with His-tagged CD127, anti-His detection
[6] = molecular target: T5, IL-7 receptor (IL-7R: CD127/CD132) on cells (human, UniProt P16871 21-459; P31785 23-369); assay: cell-based or functional assay
T5 sequence (looked up) 1: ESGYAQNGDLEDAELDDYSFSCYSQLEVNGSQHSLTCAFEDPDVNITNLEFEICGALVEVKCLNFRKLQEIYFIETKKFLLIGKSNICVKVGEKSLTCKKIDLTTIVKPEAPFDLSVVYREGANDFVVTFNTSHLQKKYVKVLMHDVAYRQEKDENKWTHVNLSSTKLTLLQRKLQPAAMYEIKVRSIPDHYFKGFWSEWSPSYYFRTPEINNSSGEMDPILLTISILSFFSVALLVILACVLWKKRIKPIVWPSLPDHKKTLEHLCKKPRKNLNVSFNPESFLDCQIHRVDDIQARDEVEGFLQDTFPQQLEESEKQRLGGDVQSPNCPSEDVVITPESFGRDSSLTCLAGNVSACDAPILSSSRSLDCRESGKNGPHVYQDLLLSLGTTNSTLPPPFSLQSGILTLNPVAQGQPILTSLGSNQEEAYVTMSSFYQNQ
T5 sequence (looked up) 2: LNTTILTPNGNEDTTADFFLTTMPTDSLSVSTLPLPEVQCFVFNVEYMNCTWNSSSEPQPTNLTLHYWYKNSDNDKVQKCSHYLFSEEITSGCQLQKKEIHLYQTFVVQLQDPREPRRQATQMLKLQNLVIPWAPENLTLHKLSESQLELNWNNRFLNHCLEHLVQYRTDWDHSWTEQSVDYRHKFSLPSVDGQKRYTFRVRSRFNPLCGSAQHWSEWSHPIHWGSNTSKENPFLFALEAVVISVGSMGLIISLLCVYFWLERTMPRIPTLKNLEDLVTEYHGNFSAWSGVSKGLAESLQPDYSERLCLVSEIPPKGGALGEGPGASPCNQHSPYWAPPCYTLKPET

[7] = molecular target: T1, CD127 (Sinobiological, 10975-H03H-50); assay: Biacore: CD127 immobilised on CM5 chip, fusion as analyte (0.35-30 nM), two-state reaction model
[8] = molecular target: T6, CD132 receptor (Sinobiological 10555-H08B) (UniProt P31785 23-254); assay: Biacore, steady-state model: CD127 immobilised, IL-7 construct injected at 30 nM, then CD132 at 31.25-500 nM (CD132 on the CD127 + fusion complex)
T6 construct: bought; analyte in the Biacore CD132 assay; also called common gamma chain
T6 sequence (looked up): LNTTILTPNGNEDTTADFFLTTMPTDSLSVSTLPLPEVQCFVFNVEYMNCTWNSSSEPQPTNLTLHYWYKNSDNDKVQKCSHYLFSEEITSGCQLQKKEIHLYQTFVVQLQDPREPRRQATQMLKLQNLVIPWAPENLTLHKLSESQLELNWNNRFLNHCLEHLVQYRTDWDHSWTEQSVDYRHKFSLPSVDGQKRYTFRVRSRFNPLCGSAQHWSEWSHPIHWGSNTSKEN

[9] = molecular target: T4, CD127 recombinant protein (Histidine …); assay: sandwich ELISA, PD-1 immobilised, molecule preincubated with His-tagged CD127, anti-His-biotin + streptavidin-peroxidase, 450 nm
[10] = molecular target: T4, CD127 recombinant protein (Histidine …); assay: as above; remark: listed apart in the source
[11] = molecular target: T4, CD127 recombinant protein (Histidine …); assay: as above; remark: listed apart in the source
[12] = molecular target: T2, recombinant human PD-1 (rPD1; Sino …); assay: ELISA, recombinant human PD-1 immobilised, anti-human Fc-peroxidase, TMB, 450 nm

Kd [1]: 45.2 nM
EC50 [2]: 0.026 nM
EC50 [3]: 2.17 nM
EC50 (read off the curve) [4]: ~0.9 nM
B1: Construction 2: anti PD-1*2 IL-7 W142H*1 (other)
heavy 1: QIQLVQSGSELKKPGASVKVSCKASGYTFTHYAMNWVRQAPGQGLEWMGWINTNTGEPTYAQGFTGRFVFSLDTSVSTAYLQISSLKAEDTAVYYCAREREPGMDNWGQGTLVTVSSASTKGPSVFPLAPSSKSTSGGTAALGCLVKDYFPEPVTVSWNSGALTSGVHTFPAVLQSSGLYSLSSVVTVPSSSLGTQTYICNVNHKPSNTKVDKKV[… human IgG1 Fc with changes …]GGGGSGGGGSGGGGSDCDIEGKDGKQYESVLMVSIDQLLDSMKEIGSNCLNNEFNFFKRHICDANKEGMFLFRAARKLRQFLKMNSTGDFDLHLLKVSEGTTILLNCTGQVKGRKPAALGEAQPTKSLEENKSLKEQKKLNDLCFLKRLLQEIKTCHNKILMGTKEH
heavy 2: QIQLVQSGSELKKPGASVKVSCKASGYTFTHYAMNWVRQAPGQGLEWMGWINTNTGEPTYAQGFTGRFVFSLDTSVSTAYLQISSLKAEDTAVYYCAREREPGMDNWGQGTLVTVSSASTKGPSVFPLAPSSKSTSGGTAALGCLVKDYFPEPVTVSWNSGALTSGVHTFPAVLQSSGLYSLSSVVTVPSSSLGTQTYICNVNHKPSNTKVDKKVEPKSCDKTHTCPPCPAPELLGGPSVFLFPPKPKDTLMISRTPEVTCVVVDVSHEDPEVKFNWYVDGVEVHNAKTKPREEQYASTYRVVSVLTVLHQDWLNGKEYKCKVSNKALPAPIEKTISKAKGQPREPQVYTLPPCRDELTKNQVSLWCLVKGFYPSDIAVEWESNGQPENNYKTTPPVLDSDGSFFLYSKLTVDKSRWQQGNVFSCSVMHEALHNHYTQKSLSLSPGK
light: DVVMTQSPLSLPVTLGQPASISCRSSQSLVHANTNTYLEWYQQRPGQSPRLLIYKVSNRFSGVPDRFSGSGSGTDFTLKISRVEAEDVGVYYCFQGTHVPNTFGQGTKLEIKRTVAAPSVFIFPPSDEQLKSGTASVVCLLNNFYPREAKVQWKVDNALQSGNSQESVTEQDSKDSTYSLSSTLTLSKADYEKHKVYACEVTHQGLSSPVTKSFNRGEC
notes: IgG1 N298A, knob-into-hole

EC50 [5]: 0.136 mg/L
pSTAT5 EC50 in CD3 T cells of human PBMCs [6]: 861 ng/mL
Kd [7]: 56.8 nM
Kd2 [7]: 0.00256 s⁻¹
kon [7]: 502000 M⁻¹ s⁻¹
Kd [8]: 572 nM
B2: anti PD-1 IL-7 W142H bifunctional molecule, IgG4m isotype, (GGGGS)3 linker (other)
heavy: QIQLVQSGSELKKPGASVKVSCKASGYTFTHYAMNWVRQAPGQGLEWMGWINTNTGEPTYAQGFTGRFVFSLDTSVSTAYLQISSLKAEDTAVYYCAREREPGMDNWGQGTLVTVSSASTKGPSVFPLAPCSRSTSESTAALGCLVKDYFPEPVTVSWNSGALTSGVHTFPAVLQSSGLYSLSSVVTVPSSSLGTKTYTCNVDHKPSNTKVDKRV[… human IgG4 Fc with S228P L445P (EU numbers) …]GGGGSGGGGSGGGGSDCDIEGKDGKQYESVLMVSIDQLLDSMKEIGSNCLNNEFNFFKRHICDANKEGMFLFRAARKLRQFLKMNSTGDFDLHLLKVSEGTTILLNCTGQVKGRKPAALGEAQPTKSLEENKSLKEQKKLNDLCFLKRLLQEIKTCHNKILMGTKEH
light: B1 light
notes: as m11 with IL-7 W142H; also called IgG4 G4S3 IL7 W142H; IgG4 Fc G4S3 IL-7 W142H

Kd [1]: 37.3 nM
EC50 [2]: 0.034 nM
EC50 (read off the curve) [9]: ~0.05 mg/L
EC50 [3]: 2.79 nM
EC50 (read off the curve) [10]: ~0.07 mg/L
B3: anti PD-1 IL-7 W142H bifunctional molecule, IgG1m isotype, (GGGGS)3 linker (construction 1 as used in Example 8) (other)
heavy: QIQLVQSGSELKKPGASVKVSCKASGYTFTHYAMNWVRQAPGQGLEWMGWINTNTGEPTYAQGFTGRFVFSLDTSVSTAYLQISSLKAEDTAVYYCAREREPGMDNWGQGTLVTVSS[… human IgG1 constant region with changes …]GGGGSGGGGSGGGGSDCDIEGKDGKQYESVLMVSIDQLLDSMKEIGSNCLNNEFNFFKRHICDANKEGMFLFRAARKLRQFLKMNSTGDFDLHLLKVSEGTTILLNCTGQVKGRKPAALGEAQPTKSLEENKSLKEQKKLNDLCFLKRLLQEIKTCHNKILMGTKEH
light: B1 light
notes: two anti PD-1 arms and two IL-7 W142H; also called anti PD-1*2 IL-7 W142H*2; anti-PD-1*2 IL7 W142H*2

binding result [11]: binds
EC50 (read off the curve) [12]: ~0.005 mg/L
B4: anti PD-1 IL-7 SS2 bifunctional molecule, IgG1m isotype, (GGGGS)3 linker (other)
heavy: QIQLVQSGSELKKPGASVKVSCKASGYTFTHYAMNWVRQAPGQGLEWMGWINTNTGEPTYAQGFTGRFVFSLDTSVSTAYLQISSLKAEDTAVYYCAREREPGMDNWGQGTLVTVSS[… human IgG1 constant region with changes …]GGGGSGGGGSGGGGSDSDIEGKDGKQYESVLMVSIDQLLDSMKEIGSNCLNNEFNFFKRHISDANKEGMFLFRAARKLRQFLKMNSTGDFDLHLLKVSEGTTILLNSTGQVKGRKPAALGEAQPTKSLEENKSLKEQKKLNDLCFLKRLLQEIKTSWNKILMGTKEH
light: B1 light
notes: as m24 with IL-7 SS2; also called anti PD-1 IL-7 SS2 bifunctional molecule with an IgG1m
